Assay results as given in patent publication US20220402985A1.
Values joined by “and” are separate entries in the source; they are usually repeats but may differ in a detail not shown here. Identical values can stand only once.

Tests used:
[1] = molecular target: ErbB3 on rat Schwann cells (rat) (UniProt Q62799); experiment: cell-based or functional assay
[2] = molecular target: ErbB4 on neonatal rat cardiomyocytes (rat) (UniProt Q62956); experiment: cell-based or functional assay
UniProt Q62956, sequence (Q62956 26-1308): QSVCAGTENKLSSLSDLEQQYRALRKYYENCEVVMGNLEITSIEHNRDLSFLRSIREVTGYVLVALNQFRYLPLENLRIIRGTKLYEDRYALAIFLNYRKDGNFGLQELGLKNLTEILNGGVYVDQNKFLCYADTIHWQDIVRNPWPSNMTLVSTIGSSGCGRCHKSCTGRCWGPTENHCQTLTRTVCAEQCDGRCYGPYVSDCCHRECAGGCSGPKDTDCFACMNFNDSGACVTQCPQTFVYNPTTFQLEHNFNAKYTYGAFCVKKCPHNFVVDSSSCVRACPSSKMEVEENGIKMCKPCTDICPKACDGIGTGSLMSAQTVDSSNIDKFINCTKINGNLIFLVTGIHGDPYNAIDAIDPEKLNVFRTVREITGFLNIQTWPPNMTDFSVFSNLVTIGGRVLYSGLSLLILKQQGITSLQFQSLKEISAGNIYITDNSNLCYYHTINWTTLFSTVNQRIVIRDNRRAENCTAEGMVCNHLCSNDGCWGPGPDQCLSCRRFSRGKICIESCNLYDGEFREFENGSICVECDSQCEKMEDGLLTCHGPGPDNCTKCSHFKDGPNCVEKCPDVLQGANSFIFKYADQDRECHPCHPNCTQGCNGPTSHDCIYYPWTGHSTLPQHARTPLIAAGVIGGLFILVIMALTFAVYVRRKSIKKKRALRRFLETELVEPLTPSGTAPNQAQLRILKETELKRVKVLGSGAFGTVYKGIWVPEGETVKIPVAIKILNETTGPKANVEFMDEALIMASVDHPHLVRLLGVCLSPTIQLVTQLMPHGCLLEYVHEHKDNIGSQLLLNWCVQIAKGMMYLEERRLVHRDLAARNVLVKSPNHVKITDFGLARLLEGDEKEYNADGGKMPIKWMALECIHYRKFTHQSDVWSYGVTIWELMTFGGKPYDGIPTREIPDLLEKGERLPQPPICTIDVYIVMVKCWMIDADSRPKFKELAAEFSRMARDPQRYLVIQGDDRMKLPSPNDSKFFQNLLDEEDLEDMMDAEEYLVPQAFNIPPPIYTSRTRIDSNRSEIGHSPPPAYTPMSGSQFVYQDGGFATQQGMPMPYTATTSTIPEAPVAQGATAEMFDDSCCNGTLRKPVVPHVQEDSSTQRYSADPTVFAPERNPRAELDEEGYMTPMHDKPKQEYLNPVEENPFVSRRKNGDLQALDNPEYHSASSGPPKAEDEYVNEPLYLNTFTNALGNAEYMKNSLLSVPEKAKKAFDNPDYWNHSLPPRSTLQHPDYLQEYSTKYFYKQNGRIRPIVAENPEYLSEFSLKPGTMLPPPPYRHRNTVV

UniProt Q62799, sequence (Q62799 20-1339): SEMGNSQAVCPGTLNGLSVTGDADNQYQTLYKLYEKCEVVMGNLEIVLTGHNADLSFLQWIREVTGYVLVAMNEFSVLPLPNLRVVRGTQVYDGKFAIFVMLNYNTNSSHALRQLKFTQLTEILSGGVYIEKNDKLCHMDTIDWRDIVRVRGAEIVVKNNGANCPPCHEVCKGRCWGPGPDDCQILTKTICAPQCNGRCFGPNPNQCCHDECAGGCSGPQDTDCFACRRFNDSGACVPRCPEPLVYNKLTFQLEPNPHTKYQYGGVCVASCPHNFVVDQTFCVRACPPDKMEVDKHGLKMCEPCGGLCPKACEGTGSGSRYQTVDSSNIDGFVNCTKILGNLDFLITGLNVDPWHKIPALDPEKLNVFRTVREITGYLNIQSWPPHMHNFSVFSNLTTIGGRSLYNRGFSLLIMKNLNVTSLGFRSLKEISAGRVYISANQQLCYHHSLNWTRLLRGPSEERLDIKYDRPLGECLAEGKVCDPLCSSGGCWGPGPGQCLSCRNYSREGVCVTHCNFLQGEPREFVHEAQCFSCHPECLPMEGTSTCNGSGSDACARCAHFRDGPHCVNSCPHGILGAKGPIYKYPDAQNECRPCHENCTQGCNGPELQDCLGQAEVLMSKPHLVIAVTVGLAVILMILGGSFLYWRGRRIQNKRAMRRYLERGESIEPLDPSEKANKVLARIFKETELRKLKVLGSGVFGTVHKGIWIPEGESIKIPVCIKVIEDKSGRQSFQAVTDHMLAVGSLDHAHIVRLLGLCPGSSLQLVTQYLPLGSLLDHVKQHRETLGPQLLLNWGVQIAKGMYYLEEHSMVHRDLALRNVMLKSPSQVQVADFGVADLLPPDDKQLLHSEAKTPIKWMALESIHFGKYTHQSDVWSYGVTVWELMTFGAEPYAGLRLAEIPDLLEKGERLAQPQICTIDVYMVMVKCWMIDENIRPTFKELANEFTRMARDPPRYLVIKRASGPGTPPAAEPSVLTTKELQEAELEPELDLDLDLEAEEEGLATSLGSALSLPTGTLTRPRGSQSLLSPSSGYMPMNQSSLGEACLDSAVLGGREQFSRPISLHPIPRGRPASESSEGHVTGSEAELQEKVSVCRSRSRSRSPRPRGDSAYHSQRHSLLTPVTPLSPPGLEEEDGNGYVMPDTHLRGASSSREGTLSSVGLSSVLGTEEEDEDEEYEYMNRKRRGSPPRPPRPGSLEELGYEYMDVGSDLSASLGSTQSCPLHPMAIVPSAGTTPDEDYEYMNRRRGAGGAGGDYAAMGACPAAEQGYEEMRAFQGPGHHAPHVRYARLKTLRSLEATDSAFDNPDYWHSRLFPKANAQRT

Binder | Schwann cells (SC) (ErbB3) Avg EC50 [1] | CM % Agonism AVG [2] | Cardiomyocyte (CM) (ErbB4) Avg EC50 [2] [nM] | Selectivity SC/CM [2]
huNRG1(S177-F229)(NRGE1C): (G4A)2:G4::huFcSEFL2 (Pb) (Fc fusion) SHLVKCGEKHKSFCVNGGECFMIEGPSNPSRYLCKCPNEFTGDRCQEDFMASFGGGGAGGGGAGGGG[letters of human IgG1 Fc with R292C N297G V302C (EU numbers) not shown] | > 10000 nM | 82.7% | 0.49 | > 10000
huNRG1(S177-F229)(NRGE1C)((G4E)2)::G4::huFcSEFL2 (Pb) (Fc fusion) SHLVKCGEKHKSFCVNGGECFMIEGPSNPSRYLCKCPNEFTGDRCQEDFMASFGGGGEGGGGEGGGG[letters of human IgG1 Fc with R292C N297G V302C (EU numbers) not shown] | > 10000 nM | 81.9% and 88.7% | – | > 10000
huNRG1(S177-F229)(NRGE1C)::(G4S)2::G4::huFcSEFL2 (Pb) (Fc fusion) SHLVKCGEKHKSFCVNGGECFMIEGPSNPSRYLCKCPNEFTGDRCQEDFMASFGGGGSGGGGSGGGG[letters of human IgG1 Fc with R292C N297G V302C (EU numbers) not shown] | > 10000 nM | 79.4% | 0.62 | > 10000
huNRG1(S177-F229)(NRGE1C) (E47A_D48P_F49H_M50I) huIgG1z SELF2 Fc (Fc fusion) SHLVKCGEKHKSFCVNGGECFMIEGPSNPSRYLCKCPNEFTGDRCQAPHIASFGGGGEGGGGAGGGG[letters of human IgG1 Fc with R292C N297G V302C (EU numbers) not shown] | 10000 nM | 85.8% | 0.23 | > 10000
huNRG1(S177-F229)(NRGE1C) (E47K_D48T_F49S_M50L) huIgG1z SELF2 Fc (Fc fusion) SHLVKCGEKHKSFCVNGGECFMIEGPSNPSRYLCKCPNEFTGDRCQKTSLASFGGGGEGGGGAGGGG[letters of human IgG1 Fc with R292C N297G V302C (EU numbers) not shown] | 10000 nM | 92.9% | 0.25 | > 10000
huNRG1(S177-F229)(NRGE1C) (E47Q_D48S_M50P) huIgG1z SELF2 Fc (Fc fusion) SHLVKCGEKHKSFCVNGGECFMIEGPSNPSRYLCKCPNEFTGDRCQQSFPASFGGGGEGGGGAGGGG[letters of human IgG1 Fc with R292C N297G V302C (EU numbers) not shown] | 10000 nM | 83.2% | 0.3 | > 10000
huNRG1(S177-F229)(NRGE1C) (E47S_D48A_F49L_M50T) huIgG1z SELF2 Fc (Fc fusion) SHLVKCGEKHKSFCVNGGECFMIEGPSNPSRYLCKCPNEFTGDRCQSALTASFGGGGEGGGGAGGGG[letters of human IgG1 Fc with R292C N297G V302C (EU numbers) not shown] | 10000 nM | 87.8% | 0.48 | > 10000
huNRG1(S177-F229)(NRGE1C)::3x(G4Q)::huFcSEFL2 (Pb) (Fc fusion) SHLVKCGEKHKSFCVNGGECFMIEGPSNPSRYLCKCPNEFTGDRCQEDFMASFGGGGQGGGGQGGGGQ[letters of human IgG1 Fc with changes not shown] | > 10000 nM | – | – | –
huNRG1(S177-F229)(NRGE1C) (E47S_D48T_F49R_M50V) huIgG1z SELF2 Fc (Fc fusion) SHLVKCGEKHKSFCVNGGECFMIEGPSNPSRYLCKCPNEFTGDRCQSTRVASFGGGGEGGGGAGGGG[letters of human IgG1 Fc with R292C N297G V302C (EU numbers) not shown] | 10000 nM | 76% | 0.19 | > 10000
huNRG1(S177-F229)(NRGE1C) huIgG1z SELF2 Fc (Fc fusion) SHLVKCGEKHKSFCVNGGECFMIEGPSNPSRYLCKCPNEFTGDRCQEDFMASFGGGGEGGGGAGGGG[letters of human IgG1 Fc with R292C N297G V302C (EU numbers) not shown] | 10000 nM | 77.2% | 0.28 | > 10000
huNRG1(S177-F229)(NRGE1D) (E47K_D48L_F49D_M50I) huIgG1z SELF2 Fc (Fc fusion) SHLVKCGESHKSFCVNGGECYMVEGSSIPSRYLCKCPNEFTGDRCQKLDIASFGGGGEGGGGAGGGG[letters of human IgG1 Fc with R292C N297G V302C (EU numbers) not shown] | 9.33 nM | 88.5% | 0.15 | 62.2
huNRG1(S177-F229)(NRGE1C)(G4E)::G4S::G4::huFcSEFL2 (Pb) (Fc fusion) SHLVKCGEKHKSFCVNGGECFMIEGPSNPSRYLCKCPNEFTGDRCQEDFMASFGGGGEGGGGSGGGG[letters of human IgG1 Fc with R292C N297G V302C (EU numbers) not shown] | > 10000 nM | 82.2% | 0.42 | > 10000
huNRG1(S177-F229)(NRGE1D) (E47S_D48S_F49E_M50L) huIgG1z SELF2 Fc (Fc fusion) SHLVKCGESHKSFCVNGGECYMVEGSSIPSRYLCKCPNEFTGDRCQSSELASFGGGGEGGGGAGGGG[letters of human IgG1 Fc with R292C N297G V302C (EU numbers) not shown] | 10000 nM | 86.3% | 0.37 | > 10000
huNRG1(S177-F229)(NRGE1D) (E47T_D48S_F49L_M50L) huIgG1z SELF2 Fc (Fc fusion) SHLVKCGESHKSFCVNGGECYMVEGSSIPSRYLCKCPNEFTGDRCQTSLLASFGGGGEGGGGAGGGG[letters of human IgG1 Fc with R292C N297G V302C (EU numbers) not shown] | 10000 nM | 79.5% | 0.39 | > 10000
:huFcSEFL2(desK):G4SG4:huNRG1(S177-F229)(NRGE1C) (Fc fusion) [letters of human IgG1 Fc with R292C N297G V302C (EU numbers) not shown]GGGGSGGGGSHLVKCGEKHKSFCVNGGECFMIEGPSNPSRYLCKCPNEFTGDRCQEDFMASF[letters of human IgG1 Fc with R292C N297G V302C (EU numbers) not shown]GGGGSGGGGSHLVKCGEKHKSFCVNGGECFMIEGPSNPSRYLCKCPNEFTGDRCQEDFMASF | – | 71.8% | 0.29 | > 10000
:huFcSEFL2(desK):G4SG4:huNRG1(S177-F229)(NRGE1D) (Fc fusion) [letters of human IgG1 Fc with R292C N297G V302C (EU numbers) not shown]GGGGSGGGGSHLVKCGESHKSFCVNGGECYMVEGSSIPSRYLCKCPNEFTGDRCQEDFMASF[letters of human IgG1 Fc with R292C N297G V302C (EU numbers) not shown]GGGGSGGGGSHLVKCGESHKSFCVNGGECYMVEGSSIPSRYLCKCPNEFTGDRCQEDFMASF | – | 76.2% | 0.23 | > 10000
:huFcSEFL2(desK):G4SG4:huNRG1(S177-Q237)(NRGE1C) (Fc fusion) [letters of human IgG1 Fc with R292C N297G V302C (EU numbers) not shown]GGGGSGGGGSHLVKCGEKHKSFCVNGGECFMIEGPSNPSRYLCKCPNEFTGDRCQEDFMASFYKAEELYQ[letters of human IgG1 Fc with R292C N297G V302C (EU numbers) not shown]GGGGSGGGGSHLVKCGEKHKSFCVNGGECFMIEGPSNPSRYLCKCPNEFTGDRCQEDFMASFYKAEELYQ | – | 84.9% | 0.11 | > 10000
:huFcSEFL2(desK):G4SG4:huNRG1(S177-Q237)(NRGE1D) (Fc fusion) [letters of human IgG1 Fc with R292C N297G V302C (EU numbers) not shown]GGGGSGGGGSHLVKCGESHKSFCVNGGECYMVEGSSIPSRYLCKCPNEFTGDRCQEDFMASFYKAEELYQ[letters of human IgG1 Fc with R292C N297G V302C (EU numbers) not shown]GGGGSGGGGSHLVKCGESHKSFCVNGGECYMVEGSSIPSRYLCKCPNEFTGDRCQEDFMASFYKAEELYQ | – | 90.5% | 0.1 | > 10000
huNRG1(S177-F229)(NRGE1D)::3x(G4Q)::huFcSEFL2 (Pb) (Fc fusion) SHLVKCGESHKSFCVNGGECYMVEGSSIPSRYLCKCPNEFTGDRCQEDFMASFGGGGQGGGGQGGGGQ[letters of human IgG1 Fc with changes not shown] | 410 nM and 446 nM | – | – | –
huNRG1(S177-F229)(3H8)::3x(G4Q)::huFcSEFL2 (Pb) (Fc fusion) SHLVKCGEKHKSFCVNGGECYMVEGSSIPSRYLCKCPNEFTGDRCQEDFMASFGGGGQGGGGQGGGGQ[letters of human IgG1 Fc with changes not shown] | 149 nM | – | – | –
huNRG1(S177-Q237)(3H8)::3x(G4Q)::huFcSEFL2 (Pb) (Fc fusion) SHLVKCGEKHKSFCVNGGECYMVEGSSIPSRYLCKCPNEFTGDRCQEDFMASFYKAEELYQGGGGQGGGGQGGGGQ[letters of human IgG1 Fc with changes not shown] | 100 nM | – | – | –
huNRG1(S177-S228)(3H8)::3x(G4Q)::huFcSEFL2 (Pb) (Fc fusion) SHLVKCGEKHKSFCVNGGECYMVEGSSIPSRYLCKCPNEFTGDRCQEDFMASGGGGQGGGGQGGGGQ[letters of human IgG1 Fc with changes not shown] | 27.7 nM | – | – | –
huNRG1(S177-Q237)(NRGE1D)::3x(G4Q)::huFcSEFL2 (Pb) (Fc fusion) SHLVKCGESHKSFCVNGGECYMVEGSSIPSRYLCKCPNEFTGDRCQEDFMASFYKAEELYQGGGGQGGGGQGGGGQ[letters of human IgG1 Fc with changes not shown] | > 10000 nM | – | – | –
huNRG1(S177-S228)(NRGE1D)::3x(G4Q)::huFcSEFL2 (Pb) (Fc fusion) SHLVKCGESHKSFCVNGGECYMVEGSSIPSRYLCKCPNEFTGDRCQEDFMASGGGGQGGGGQGGGGQ[letters of human IgG1 Fc with changes not shown] | > 10000 nM | – | – | –
